Results taken from patent US10407421B2, “Bicyclic aryl monobactam compounds and methods of use thereof for the treatment of bacterial infections” (priority 2016, dated 2019).
Counter-ions that a name gives are not always drawn. The name of at least one read-out is uncertain.

How the values were obtained:
Format in all cases: cell-based
Conditions in all cases: in the presence of β lactamase inhibitor Relebactam 4 μg/mL; 22 hours at 35±2° C.; lowest concentration inhibiting 95% of growth (OD600)
[1] = system: Klebsiella pneumoniae expressing KPC-1 (CL6569); assay: Growth inhibitory concentration (OD600), Klebsiella pneumoniae CL6569
Procedure: (§1) Antibiotic Activity: Determination of Growth Inhibitory Concentration
(§2) The concentrations of compounds required to inhibit the growth of various strains of bacteria were determined in an assay that assessed bacterial growth by measuring optical density at 600 nm (OD600). The bacterial strains tested included the clinical strains Escherichia coli expressing NDM-1 (CLB30016), Klebsiella pneumoniae expressing KPC-1 (CL6569), Acinetobacter baumannii expressing TEM-1, AmpC, and Oxa-24/40 (CL6188) and Pseudomonas aeruginosa expressing AmpC (CL5701). All compounds were tested in the presence of a β lactamase inhibitor (BLi, Relebactam) in 384-well microplates. The clinical strains were stored as frozen single use stocks, thawed and diluted into 1.1× cation-adjusted Mueller-Hinton II broth to achieve approximately 2×10^5 CFU/mL. Test compounds were dissolved in DMSO and diluted 1:50 in the assay, resulting in a final concentration range of 100 μM to 0.098 μM. On the day of the assay, 1 μL of test compound was added to the plate followed by 4 μL of 50 μg/mL BLi in MOPS buffer and 45 µL of diluted bacteria. Plates were centrifuged at 1000 rpm for 30 seconds, shaken at approximately 800 rpm for 1 minute, and incubated at 35±2° C. for 22 hours. The concentration of BLi used in the assay was 4 μg/mL. At the end of the incubation, absorbance at 600 nm was determined using a spectrophotometer. Inhibition was quantitated by identifying the lowest concentration of test compound that was required to inhibit 95% of the growth of the bacteria. The results for Examples 1-73 are reported in Table I, expressed as the concentration of compound that inhibited 95% of bacterial growth (Minimum Inhibitory Threshold Concentration; MITC95).

[2] = system: Pseudomonas aeruginosa expressing AmpC (CL5701); assay: Growth inhibitory concentration (OD600), Pseudomonas aeruginosa CL5701
Procedure: as §1, §2

[3] = system: Escherichia coli expressing NDM-1 (CLB30016); assay: Growth inhibitory concentration (OD600), Escherichia coli CLB30016
Procedure: as §1, §2

[4] = system: Acinetobacter baumannii expressing TEM-1, AmpC, and Oxa-24/40 (CL6188); assay: Growth inhibitory concentration (OD600), Acinetobacter baumannii CL6188
Procedure: as §1, §2

CC1(C)[C@H](NC(=O)/C(=N\O[C@@H](COc2ccc3c(NC4CCNCC4)nccc3c2)C(=O)O)c2csc(N)n2)C(=O)N1OS(=O)(=O)O [Example 14, (S)-2-((((Z)-1-(2-aminothiazol-4-yl)-2-(((S)-2,2-dimethyl-4-oxo-1-(sulfooxy)azetidin-3-yl)amino)-2-oxoethylidene)amino)oxy)-3-((1-(piperidin-4-ylamino)isoquinolin-6-yl)oxy)propanoic acid]
KP_CL6569 MITC95 [1]: 0.78 µM | PA_CL5701 MITC95 [2]: 9.4 µM | EC_CLB30016 MITC95 [3]: 9.4 µM | AB_CL6188 MITC95 [4]: 25 µM

C[n+]1ccc2cc(OC[C@H](O/N=C(\C(=O)N[C@@H]3C(=O)N(OS(=O)(=O)O)C3(C)C)c3csc(N)n3)C(=O)O)ccc2c1NC1CNC1.O=C([O-])C(F)(F)F [Example 15, 6-((S)-2-((((Z)-1-(2-aminothiazol-4-yl)-2-(((S)-2,2-dimethyl-4-oxo-1-(sulfooxy)azetidin-3-yl)amino)-2-oxoethylidene)amino)oxy)-2-carboxyethoxy)-1-(azetidin-3-ylamino)-2-methylisoquinolin-2-ium 2,2,2-trifluoroacetate]
KP_CL6569 MITC95 [1]: 0.39 µM | PA_CL5701 MITC95 [2]: 6.2 µM | EC_CLB30016 MITC95 [3]: 6.2 µM | AB_CL6188 MITC95 [4]: 4.7 µM

C[n+]1ccc2cc(OC[C@H](O/N=C(\C(=O)N[C@@H]3C(=O)N(OS(=O)(=O)[O-])C3(C)C)c3csc(N)n3)C(=O)O)ccc2c1NCC1CNC1 [Example 16, (S)-3-((Z)-2-(2-aminothiazol-4-yl)-2-(((S)-2-((1-((azetidin-3-ylmethyl)amino)-2-methylisoquinolin-2-ium-6-yl)oxy)-1-carboxyethoxy)imino)acetamido)-2,2-dimethyl-4-oxoazetidin-1-yl Sulfate]
KP_CL6569 MITC95 [1]: 0.39 µM | PA_CL5701 MITC95 [2]: 6.2 µM | EC_CLB30016 MITC95 [3]: 12.5 µM | AB_CL6188 MITC95 [4]: 3.1 µM

CC1(C)[C@H](NC(=O)/C(=N\O[C@@H](COc2ccc3nc(NCC[N+](C)(C)C)ccc3c2)C(=O)O)c2csc(N)n2)C(=O)N1OS(=O)(=O)O [Example 17, 2-((6-((S)-2-((((Z)-1-(2-aminothiazol-4-yl)-2-(((S)-2,2-dimethyl-4-oxo-1-(sulfooxy)azetidin-3-yl)amino)-2-oxoethylidene)amino)oxy)-2-carboxyethoxy)quinolin-2-yl)amino)-N,N,N-trimethylethane-1-aminium 2,2,2-trifluoroacetate]
KP_CL6569 MITC95 [1]: 0.78 µM | PA_CL5701 MITC95 [2]: 12.5 µM | EC_CLB30016 MITC95 [3]: 12.5 µM | AB_CL6188 MITC95 [4]: 25 µM

CC1(C)[C@H](NC(=O)/C(=N\O[C@@H](COc2ccc3nc(NC4CC[N+](C)(C)CC4)ccc3c2)C(=O)O)c2csc(N)n2)C(=O)N1OS(=O)(=O)O.O=C([O-])C(F)(F)F [Example 18, 4-((6-((S)-2-((((Z)-1-(2-aminothiazol-4-yl)-2-(((S)-2,2-dimethyl-4-oxo-1-(sulfooxy)azetidin-3-yl)amino)-2-oxoethylidene)amino)oxy)-2-carboxyethoxy)quinolin-2-yl)amino)-1,1-dimethylpiperidin-1-ium 2,2,2-trifluoroacetate]
KP_CL6569 MITC95 [1]: 1.2 µM | PA_CL5701 MITC95 [2]: 12.5 µM | EC_CLB30016 MITC95 [3]: 6.2 µM | AB_CL6188 MITC95 [4]: 12.5 µM

C[n+]1ccc2cc(OC[C@H](O/N=C(\C(=O)N[C@@H]3C(=O)N(OS(=O)(=O)[O-])C3(C)C)c3nc(N)sc3Cl)C(=O)O)ccc2c1NCC1CNC1 [Example 19, (S)-3-((Z)-2-(2-amino-5-chlorothiazol-4-yl)-2-(((S)-2-((1-((azetidin-3-ylmethyl)amino)-2-methylisoquinolin-2-ium-6-yl)oxy)-1-carboxyethoxy)imino)acetamido)-2,2-dimethyl-4-oxoazetidin-1-yl sulfate, 2,2,2-trifluoroacetate Salt]
KP_CL6569 MITC95 [1]: 1.6 µM | PA_CL5701 MITC95 [2]: 6.2 µM | EC_CLB30016 MITC95 [3]: 12.5 µM | AB_CL6188 MITC95 [4]: 3.1 µM

C[C@H]1[C@H](NC(=O)/C(=N\O[C@@H](COc2ccc3c(NC4CNC4)nccc3c2)C(=O)O)c2csc(N)n2)C(=O)N1S(=O)(=O)O [Example 20, 3-((6-((S)-2-((((Z)-1-(2-aminothiazol-4-yl)-2-(((2S,3S)-2-methyl-4-oxo-1-sulfoazetidin-3-yl)amino)-2-oxoethylidene)amino)oxy)-2-carboxyethoxy)isoquinolin-1-yl)amino)azetidin-1-ium]
KP_CL6569 MITC95 [1]: 0.78 µM | PA_CL5701 MITC95 [2]: 6.2 µM | EC_CLB30016 MITC95 [3]: 12.5 µM | AB_CL6188 MITC95 [4]: 12.5 µM

CC1(C)[C@H](NC(=O)/C(=N\O[C@@H](COc2ccc3nc(NC4CNC4)ccc3c2)C(=O)O)c2nsc(N)n2)C(=O)N1OS(=O)(=O)O.O=C(O)C(F)(F)F [Example 21, 3-((6-((S)-2-((((Z)-1-(5-amino-1,2,4-thiadiazol-3-yl)-2-(((S)-2,2-dimethyl-4-oxo-1-(sulfooxy)azetidin-3-yl)amino)-2-oxoethylidene)amino)oxy)-2-carboxyethoxy)quinolin-2-yl)amino)azetidin-1-ium 2,2,2-trifluoroacetate]
KP_CL6569 MITC95 [1]: 0.39 µM | PA_CL5701 MITC95 [2]: 3.1 µM | EC_CLB30016 MITC95 [3]: 100 µM | AB_CL6188 MITC95 [4]: 12.5 µM

CC1(C)[C@H](NC(=O)/C(=N\OCCOc2ccc3c(NC4CCNCC4)nccc3c2)c2csc(N)n2)C(=O)N1OS(=O)(=O)O.O=C(O)C(F)(F)F [Example 22, (S,Z)-4-((6-(2-(((1-(2-aminothiazol-4-yl)-2-((2,2-dimethyl-4-oxo-1-(sulfooxy)azetidin-3-yl)amino)-2-oxoethylidene)amino)oxy)ethoxy)isoquinolin-1-yl)amino)piperidin-1-ium]
KP_CL6569 MITC95 [1]: 12.5 µM | PA_CL5701 MITC95 [2]: 100 µM | EC_CLB30016 MITC95 [3]: 100 µM | AB_CL6188 MITC95 [4]: 75 µM

CC1(C)C(NC(=O)/C(=N\OCCOc2ccc3c(NCCN)nccc3c2)c2csc(N)n2)C(=O)N1OS(=O)(=O)O.O=C(O)C(F)(F)F [Example 23, (S,Z)-2-((6-(2-(((1-(2-aminothiazol-4-yl)-2-((2,2-dimethyl-4-oxo-1-(sulfooxy)azetidin-3-yl)amino)-2-oxoethylidene)amino)oxy)ethoxy)iso-quinolin-1-yl)amino)ethan-1-aminium 2,2,2-trifluoroacetate]
KP_CL6569 MITC95 [1]: 1.5 µM | PA_CL5701 MITC95 [2]: 12.5 µM | EC_CLB30016 MITC95 [3]: 12.5 µM | AB_CL6188 MITC95 [4]: 9.4 µM

CC1(C)C(NC(=O)/C(=N\OCCOc2ccc3nc(NC4CCNCC4)ccc3c2)c2csc(N)n2)C(=O)N1OS(=O)(=O)O.O=C(O)C(F)(F)F [Example 24, (S,Z)-4-((6-(2-(((1-(2-aminothiazol-4-yl)-2-((2,2-dimethyl-4-oxo-1-(sulfooxy)azetidin-3-yl)amino)-2-oxoethylidene)amino)oxy)ethoxy)quin-olin-2-yl)amino)piperidin-1-ium 2,2,2-trifluoroacetate]
KP_CL6569 MITC95 [1]: 1.8 µM | PA_CL5701 MITC95 [2]: 12.5 µM | EC_CLB30016 MITC95 [3]: 12.5 µM | AB_CL6188 MITC95 [4]: 12.5 µM

CC1(C)[C@H](NC(=O)/C(=N\OCCOc2ccc3c(N)nccc3c2)c2csc(N)n2)C(=O)N1OS(=O)(=O)O.O=C(O)C(F)(F)F [Example 25, (S,Z)-1-amino-6-(2-(((1-(2-aminothiazol-4-yl)-2-((2,2-dimethyl-4-oxo-1-(sulfooxy)azetidin-3-yl)amino)-2-oxoethylidene)amino)oxy)ethoxy)isoquinolin-2-ium 2,2,2-trifluoroacetate]
KP_CL6569 MITC95 [1]: 1.3 µM | PA_CL5701 MITC95 [2]: 38 µM | EC_CLB30016 MITC95 [3]: 50 µM | AB_CL6188 MITC95 [4]: 10.4 µM
